Test results reported in the supplement of paper PMC3334620.
The full ranking holds about 33,000 sequences; the median of “E-score (-0.5 to 0.5)” is about -0.04, and the highest 2% start at about 0.36. This is one part of the list.

Each sequence was assayed against T1, Hmlalpha2 (UniProt P0CY09) (assay: PBM E-score (8-mer binding enrichment) (E-score (-0.5 to 0.5)); higher = stronger / more preferred TF binding; most listed sequences are background and not binding sites). Details: protein concentration: 200 nM; construct: GST-full length.
T1 sequence: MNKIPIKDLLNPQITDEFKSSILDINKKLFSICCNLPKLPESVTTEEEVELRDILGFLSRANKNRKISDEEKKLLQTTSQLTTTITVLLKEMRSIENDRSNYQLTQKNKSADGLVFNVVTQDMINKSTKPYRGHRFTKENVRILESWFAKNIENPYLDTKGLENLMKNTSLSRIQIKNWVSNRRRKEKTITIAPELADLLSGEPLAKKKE
Summary of the method: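 Masliner-normalised scans of fluorescent anti-GST signal were the basis for scoring. That signal came from GST-tagged yeast transcription factors applied at about 100-200 nM to double-stranded universal all-10-mer Agilent arrays on fresh or once-stripped slides. Each ungapped eight-base word, pooled with its reverse complement, received an E-score from the Universal PBM Analysis Suite.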

In order of falling “PBM E-score” value:
1. GTTGTGTA  0.448
2. CCTATGTA  0.433
3. ATACACAG  0.408
4. TGTCAAAA  0.349
5. ACACGGCT  0.32
6. CCGTTACA  0.314
7. CTTGTATA  0.289
8. AACAAGGG  0.275
9. ATTAAATA  0.238
10. AGGACACA  0.228
11. TGTAGGAA  0.226
12. ACTAAACG  0.209
13. AAACAAAC  0.206
14. ACGAATCT  0.198
15. TTATAGAA  0.19
16. ATACCAAC  0.178
17. CATACGCG  0.177
18. TGCCAACA  0.174
19. ACATCCCT  0.174
20. AGGAATAC  0.168
21. AATTGTAT  0.165
22. AGGAAATA  0.153
23. ACGGTAAC  0.151
24. ACTCAACG  0.137
25. GTGATCGA  0.137
26. GTATAGAC  0.135
27. ACCGTACA  0.133
28. CCGAAATA  0.13
29. AATTCTAT  0.129
30. AACGCGGC  0.127
31. ATGTGCTG  0.126
32. ATATTTAG  0.125
33. AAATAGAT  0.123
34. AGATGTAC  0.121
35. GAAAATCA  0.114
36. TCCTAAAA  0.109
37. AGTTAGTG  0.101
38. AAGATCTG  0.101
39. CGCAAACG  0.1
40. CTGACTAC  0.1
41. TCTAACAA  0.0968
42. GGCCCGTA  0.0883
43. CAAATCAG  0.0758
44. CAGGACAA  0.074
45. CCCACGTA  0.0709
46. ATACAGGC  0.0693
47. ATGAATGA  0.0669
48. AAATACCG  0.0656
49. ATTTTGGA  0.064
50. ATATTTCA  0.0592
51. CAAGAAAG  0.0521
52. CCTAAATA  0.0479
53. ATTGGCCA  0.0475
54. CATTCCGA  0.0457
55. CATTCCAA  0.04
56. ATAGTCAC  0.0342
57. AGCAGGTA  0.0285
58. ATTGAAAG  0.024
59. TACGACGA  0.0197
60. GGGTTATA  0.0187
61. AGGTTGAA  0.0137
62. CCGGACAA  0.0112
63. ATGTCCTA  0.0102
64. GATGACGA  0.00187
65. AACGACGA  0.00043
66. AAACCAGC  -0.0019
67. ACACTCAG  -0.00545
68. AGGAATCA  -0.00896
69. ATCAGCTG  -0.0098
70. GAGAGCTA  -0.0115
71. AATTGCTG  -0.0142
72. AAAATGGT  -0.0156
73. ATAGCATC  -0.0228
74. GCCACAAA  -0.0235
75. CGATTCAA  -0.0313
76. ACAGTGTC  -0.034
77. CATAAAGC  -0.0376
78. AAACCGTG  -0.038
79. TTAGGAAA  -0.0393
80. AGGAACCA  -0.0406
81. CTTGATCA  -0.0419
82. AGGGTAAC  -0.0423
83. ACTGAATC  -0.0473
84. TATCCATA  -0.0491
85. CACCAGAA  -0.0535
86. AGTGTCCG  -0.0554
87. TAGCGGCA  -0.0566
88. GTCTGTGA  -0.0585
89. GATCCGGA  -0.0624
90. AGGATATC  -0.0625
91. GCAGATGA  -0.0655
92. CGCATCAA  -0.0674
93. GATCGTTA  -0.0702
94. GCTCTGAA  -0.0707
95. GGAGACGA  -0.0733
96. GCGGTCGA  -0.0746
97. CTGAAATC  -0.0751
98. ATTATCAG  -0.0762
99. CGATGAGA  -0.0765
100. AGCCCTGA  -0.0785
101. GTCAGACA  -0.0835
102. CCTGCAGC  -0.0852
103. AGCACCTC  -0.0876
104. CCTGCAAC  -0.0882
105. CGCCACAG  -0.0887
106. CCGTACGA  -0.0889
107. GAAGATGA  -0.0889
108. ATAGGTGG  -0.089
109. ACCAAGGC  -0.0893
110. ACTTAAGG  -0.0952
111. CCTGTTTC  -0.0968
112. GACCTCCA  -0.0969
113. ATGCGGCC  -0.0979
114. CTTCCGAA  -0.099
115. CAAACCGG  -0.101
116. AAGGTCCC  -0.103
117. GAAGTGGA  -0.103
118. GGAGTATA  -0.109
119. AGTACTGC  -0.11
120. AAAAAAGG  -0.113
121. CCAATGAC  -0.113
122. AATTTCGC  -0.119
123. CCTTTGCG  -0.12
124. GCCATGAA  -0.121
125. GCCGCATA  -0.121
126. GTACGCCA  -0.124
127. GTCCCTTA  -0.127
128. GCATCGAC  -0.132
129. ACTTTTGG  -0.133
130. CTAGAAGA  -0.139
131. ACCCCAAA  -0.14
132. CAGACCGA  -0.144
133. ACGGCGCT  -0.145
134. TATCGGGA  -0.148
135. ATTGACCC  -0.151
136. TCCGGCGA  -0.158
137. ATCCGGGA  -0.164
138. AGGCCCAA  -0.164
139. GGCTCATA  -0.164
140. TAACCCCA  -0.165
141. GGAAAGCC  -0.165
142. ATACGGCG  -0.169
143. TGGTGCAA  -0.171
144. CCAATCAC  -0.172
145. AGTCATGC  -0.173
146. CGGCGCTA  -0.179
147. AAGAGCTG  -0.187
148. CGGCCACC  -0.188
149. CGGTCTTC  -0.19
150. CACGTCCC  -0.191
151. GGGAGGAA  -0.191
152. AGCAGTCA  -0.211
153. GGGCTCAC  -0.213
154. CTCCCAAA  -0.219
155. GAGTCGTA  -0.222
156. ACCGGCCC  -0.223
157. AAGCTCCA  -0.23
158. CGATTCCG  -0.248
159. CCCTTGCA  -0.25
160. CCGGCCGC  -0.251
161. TGGGGCAA  -0.251
162. CACTTCCC  -0.255
163. CGCCAGAA  -0.259
164. CCAGGCGA  -0.265
165. CGGGTATC  -0.27
166. CTGATAGC  -0.28
167. CTTCACCA  -0.283
168. CTCTAGGA  -0.287
169. TCCCGGCA  -0.297
170. CCACCCCC  -0.299
171. GGGGCCCA  -0.35
172. CCCATGAG  -0.358
